# Assay results: the supplement of paper PMC8728848
# The other results are listed elsewhere or left out.
# B1: PMA (Polygonatum multiflorum) (protein)
# chain: LLTTTLFVFISSTRSLASTNVLYSDVGNAILNAKESLIYGDYRLDMQSDCNLVLYNKAAPYWASGTRWSWGGNCHLNLQSNGELVMYAYLGRTRIAIWRSGIISATGSYALVLKYDGALHVHGPSLWSTNATGPTTPTTASWSIDSTLWSGDVATIGPTIANGDYKLELLDTCNLTLSNTKTGQVLWYTNTTDWVHDCYVNIEGNGELKIKYLGGATLWSNKVGAGYTNNYVLGLRPDGKLDTYNAPIWSPTIGPGVHVAPAVYNASSNAVAAEGNGEKIAMVTGRAKNST
# What was measured:
# Test in all cases: glycan array binding signal (z-score within array); higher = stronger binding
# Conditions in all cases: glycan notation: IUPAC condensed, linker removed
# [1] = target: GlcNAc(b1-4)GlcNAc(b1-4)GlcNAc(b1-4)GlcNAc(b1-4)GlcNAc
# Outline: (§1)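 Negative Z-scores can be read as non-binding. The Z-score is calculated within each array and then averaged across arrays of one protein sequence at different concentrations or buffers and across linkers. Arrays, 3228 in all, were curated from the Consortium for Functional Glycomics database and kept only where the protein sequence was available.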
# [2] = target: GlcNAc(b1-4)GlcNAc(b1-4)GlcNAc(b1-4)GlcNAc(b1-4)GlcNAc(b1-4)GlcNAc
# Outline: as §1
# [3] = target: GlcNAc(b1-4)[GlcNAc(b1-6)]GalNAc
# Outline: as §1
# [4] = target: GlcNAc(b1-6)Gal(b1-4)GlcNAc
# Outline: as §1
# GlcNAc(b1-6)GalNAc = target: GlcNAc(b1-6)GalNAc
# Outline: as §1
# Kdn(a2-3)Gal(b1-3)GlcNAc = target: Kdn(a2-3)Gal(b1-3)GlcNAc
# Outline: as §1
# Kdn(a2-3)Gal(b1-4)GlcNAc = target: Kdn(a2-3)Gal(b1-4)GlcNAc
# Outline: as §1
# [5] = target: Man(a1-2)Man(a1-2)Man(a1-3)Man
# Outline: as §1
# [6] = target: Man(a1-2)Man(a1-2)Man(a1-6)[Man(a1-3)]Man
# Outline: as §1
# Man(a1-2)Man(a1-3)Man = target: Man(a1-2)Man(a1-3)Man
# Outline: as §1
# [7] = target: Man(a1-2)Man(a1-3)[Man(a1-2)Man(a1-6)]Man
# Outline: as §1
# [8] = target: Man(a1-2)Man(a1-3)[Man(a1-2)Man(a1-6)]Man(a1-6)[Man(a1-2)Man(a1-2)Man(a1-3)]Man(b1-4)GlcNAc(b1-4)GlcNAc
# Outline: as §1
# [9] = target: Man(a1-2)Man(a1-3)[Man(a1-2)Man(a1-6)]Man(a1-6)[Man(a1-3)[Man(a1-6)]Man(a1-6)]Man(b1-4)GlcNAc(b1-4)GlcNAc
# Outline: as §1
# [10] = target: Man(a1-2)Man(a1-3)[Man(a1-6)]Man(a1-6)[Man(a1-2)Man(a1-3)]Man(b1-4)GlcNAc(b1-4)GlcNAc
# Outline: as §1
# [11] = target: Man(a1-2)Man(a1-6)[Man(a1-3)]Man(a1-6)[Man(a1-2)Man(a1-2)Man(a1-3)]Man(b1-4)GlcNAc(b1-4)GlcNAc
# Outline: as §1
# Man(a1-3)[Man(a1-6)]Man = target: Man(a1-3)[Man(a1-6)]Man
# Outline: as §1
# [12] = target: Man(a1-3)[Man(a1-6)]Man(a1-6)[Man(a1-3)]Man(b1-4)GlcNAc(b1-4)GlcNAc
# Outline: as §1
# [13] = target: Man(a1-3)[Man(a1-6)]Man(b1-4)GlcNAc(b1-4)GlcNAc
# Outline: as §1
# Man(b1-4)GlcNAc = target: Man(b1-4)GlcNAc
# Outline: as §1
# Neu5Ac(a2-3)Gal = target: Neu5Ac(a2-3)Gal
# Outline: as §1
# [14] = target: Neu5Ac(a2-3)Gal(b1-3)GalNAc
# Outline: as §1
# [15] = target: Neu5Ac(a2-3)Gal(b1-3)GalNAc(b1-3)Gal(a1-4)Gal(b1-4)Glc
# Outline: as §1
# [16] = target: Neu5Ac(a2-3)Gal(b1-3)GalNAc(b1-3)Gal(b1-4)GlcNAc
# Outline: as §1
# [17] = target: Neu5Ac(a2-3)Gal(b1-3)GalNAc(b1-4)[Neu5Ac(a2-3)]Gal(b1-4)Glc
# Outline: as §1
# [18] = target: Neu5Ac(a2-3)Gal(b1-3)GalNAc6S
# Outline: as §1
# [19] = target: Neu5Ac(a2-3)Gal(b1-3)GlcNAc
# Outline: as §1
# [20] = target: Neu5Ac(a2-3)Gal(b1-3)GlcNAc6S
# Outline: as §1
# [21] = target: Neu5Ac(a2-3)Gal(b1-3)[Fuc(a1-4)]GlcNAc
# Outline: as §1
# [22] = target: Neu5Ac(a2-3)Gal(b1-3)[Fuc(a1-4)]GlcNAc(b1-3)Gal(b1-4)[Fuc(a1-3)]GlcNAc
# Outline: as §1
# [23] = target: Neu5Ac(a2-3)Gal(b1-3)[Neu5Ac(a2-3)Gal(b1-4)]GlcNAc
# Outline: as §1
# [24] = target: Neu5Ac(a2-3)Gal(b1-3)[Neu5Ac(a2-6)]GalNAc
# Outline: as §1
# Neu5Ac(a2-3)Gal(b1-4)Glc = target: Neu5Ac(a2-3)Gal(b1-4)Glc
# Outline: as §1
# [25] = target: Neu5Ac(a2-3)Gal(b1-4)GlcNAc
# Outline: as §1
# [26] = target: Neu5Ac(a2-3)Gal(b1-4)GlcNAc(b1-2)Man(a1-3)[Neu5Ac(a2-3)Gal(b1-4)GlcNAc(b1-2)Man(a1-6)]Man(b1-4)GlcNAc(b1-4)GlcNAc
# Outline: as §1
# [27] = target: Neu5Ac(a2-3)Gal(b1-4)GlcNAc(b1-3)Gal(b1-4)GlcNAc
# Outline: as §1
# [28] = target: Neu5Ac(a2-3)Gal(b1-4)GlcNAc(b1-3)Gal(b1-4)GlcNAc(b1-3)Gal(b1-4)GlcNAc
# Outline: as §1
# [29] = target: Neu5Ac(a2-3)Gal(b1-4)GlcNAc(b1-3)Gal(b1-4)[Fuc(a1-3)]GlcNAc
# Outline: as §1
binder,measurement,setting,value
B1,glycan array binding signal (z-score),[1],-0.25
same,glycan array binding signal (z-score),[2],-0.262
same,glycan array binding signal (z-score),[3],-0.24
same,glycan array binding signal (z-score),[4],-0.255
same,glycan array binding signal (z-score),GlcNAc(b1-6)GalNAc,-0.246
same,glycan array binding signal (z-score),Kdn(a2-3)Gal(b1-3)GlcNAc,-0.247
same,glycan array binding signal (z-score),Kdn(a2-3)Gal(b1-4)GlcNAc,-0.134
same,glycan array binding signal (z-score),[5],4.06
same,glycan array binding signal (z-score),[6],5.65
same,glycan array binding signal (z-score),Man(a1-2)Man(a1-3)Man,2.54
same,glycan array binding signal (z-score),[7],4.98
same,glycan array binding signal (z-score),[8],1.72
same,glycan array binding signal (z-score),[9],3.03
same,glycan array binding signal (z-score),[10],2.76
same,glycan array binding signal (z-score),[11],4.46
same,glycan array binding signal (z-score),Man(a1-3)[Man(a1-6)]Man,1.01
same,glycan array binding signal (z-score),[12],2.16
same,glycan array binding signal (z-score),[13],4.4
same,glycan array binding signal (z-score),Man(b1-4)GlcNAc,-0.214
same,glycan array binding signal (z-score),Neu5Ac(a2-3)Gal,-0.246
same,glycan array binding signal (z-score),[14],-0.244
same,glycan array binding signal (z-score),[15],-0.226
same,glycan array binding signal (z-score),[16],-0.243
same,glycan array binding signal (z-score),[17],-0.249
same,glycan array binding signal (z-score),[18],-0.25
same,glycan array binding signal (z-score),[19],-0.23
same,glycan array binding signal (z-score),[20],-0.048
same,glycan array binding signal (z-score),[21],-0.252
same,glycan array binding signal (z-score),[22],-0.247
same,glycan array binding signal (z-score),[23],-0.191
same,glycan array binding signal (z-score),[24],-0.266
same,glycan array binding signal (z-score),Neu5Ac(a2-3)Gal(b1-4)Glc,-0.233
same,glycan array binding signal (z-score),[25],-0.251
same,glycan array binding signal (z-score),[26],-0.04
same,glycan array binding signal (z-score),[27],-0.253
same,glycan array binding signal (z-score),[28],-0.179
same,glycan array binding signal (z-score),[29],-0.228
